{"source": "PubChem BioAssay AID1671194", "about": "(National Center for Advancing Translational Sciences (NCATS), 2021)", "note": "Out of some 140,000 compounds screened, about 240 (0.17%) were called active. Inconclusive results, whose numbers are uncertain, are shown with a selection of clear calls. Calls come from the whole dose curve; as a rule, active = well fitted inhibition curve with a large enough effect; inconclusive = small, poorly fitted or top-dose-only effect; inactive = no such curve, though single readings can be large or run the other way. Potencies beside an inconclusive call are fits to weak or partial responses and may not hold up. Potency is the fitted concentration of half-maximal effect; tags give direction and shape of the fitted curve."}
{"assay": "Primary qHTS assay for inhibitors of alpha-synuclein gene (SNCA) expression; note: nearly all actives have a fitted effect of over 45% in size;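 for activity change, negative = inhibition: plate controls were DMSO cells for no effect and cell-free wells for full effect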", "conditions": "HEK-293 SNCA-luciferase knock-in, luminescence, 24 h; activity change, negative = inhibition: at 57.2 µM (top of the series) unless noted"}
{"smiles": "CCOc1ccc(CCNC(=O)CN2C(=O)COc3ccc(S(=O)(=O)N4CCCCCC4)cc32)cc1", "Potency": "inconclusive: 39.8 µM [inhibitor, single point]"}
{"smiles": "COc1ccc(C(=O)NC2CCN(c3cnn(CC4CC4)c(=O)c3)CC2)cc1", "Potency": "inconclusive: 8.91 µM [inhibitor, single point]"}
{"smiles": "CCN(c1nc(N)c(C(=O)N=C(N)N)nc1Cl)C(C)C", "Potency": "inconclusive: 39.8 µM [inhibitor, partial curve, poor fit]"}
{"smiles": "C[S+](=O)([O-])N1CC2(Cc3ccccc31)CN(C(=O)c1cccc(Cl)c1)C2", "activity change, negative = inhibition": "inactive: -12.4%"}
{"smiles": "O=C(CCn1cnnn1)Nc1cc(C(F)(F)F)cc(C(F)(F)F)c1", "Potency": "inconclusive: 25.1 µM [inhibitor, single point]"}
{"smiles": "CC(C)Oc1cccc(C2CC(=O)Nc3cc4c(cc32)OCO4)c1", "note": "(centres undefined)", "Potency": "inconclusive: 15.8 µM [inhibitor, partial curve, poor fit]"}
{"smiles": "O=C(O)C1CCN(C(=O)N2CC3CC(C2)[C@H]2CCCC(=O)N2C3)CC1", "note": "(some centres undefined)", "Potency": "inconclusive: 20 µM [inhibitor, single point]"}
{"smiles": "COC(=O)[C@@H]1Cc2ncn(Cc3ccc(OC)cc3)c2CN1Cc1ccc(OC)cc1", "activity change, negative = inhibition": "inactive: -13.5% [at 87.6 µM]"}
{"smiles": "O=C(CCC1CCN(C(=O)c2ccccc2)CC1)NCCCN1CCCc2ccccc21", "activity change, negative = inhibition": "inactive: 10%"}
{"smiles": "Cc1ccc(Cl)cc1N1CCN(C(=O)CCCn2c(=O)[nH]c3ccc(Br)cc3c2=O)CC1", "Potency": "inconclusive: 39.8 µM [inhibitor, single point]"}
{"smiles": "O=C1NCc2ccccc2CC12CCCN2Cc1cccc(OC(F)(F)F)c1", "note": "(centres undefined)", "activity change, negative = inhibition": "inactive: -26.3%"}
{"smiles": "COc1cc(CN2CC[C@H](c3nc4ccccc4o3)C2)cc(OC)c1OC", "activity change, negative = inhibition": "inactive: -27.2% [at 87.6 µM]"}
{"smiles": "CN(c1ccccc1)c1ccc2ncn(C3CC3)c(=O)c2n1", "Potency": "inconclusive: 39.8 µM [inhibitor, single point]"}
{"smiles": "COc1ccc(-c2cn(C)c(=O)n3cc(CN(C)C)nc23)c(C(F)(F)F)c1", "Potency": "inconclusive: 22.4 µM [inhibitor, partial curve]"}
{"smiles": "COc1cc(CCNC(=O)c2ccc3c(c2)c(C)c(C)n3Cc2cccc(C)c2)cc(OC)c1OC", "Potency": "inconclusive: 39.8 µM [inhibitor, single point]"}
{"smiles": "O=C(NCCc1ccc(Cl)cc1)C1CCCCN1Cc1ccc(-c2ccsc2)cc1", "note": "(centres undefined)", "activity change, negative = inhibition": "inactive: -0.599%"}
{"smiles": "COCCn1cc2c3c(cccc31)CN(C(=O)c1cccc(C(F)(F)F)c1)CC2", "Potency": "inconclusive: 8.91 µM [inhibitor, single point]"}
{"smiles": "Cc1ccc(NC(=O)c2ccc(CNS(=O)(=O)c3ccc4c(c3)C(C)(C)C(=O)N4C)cc2)cc1C", "Potency": "inconclusive: 39.8 µM [inhibitor, single point]"}
{"smiles": "CCCS(=O)(=O)N1CC[C@H](c2nc(C)no2)[C@H](NC(=O)C2CC2)C1", "activity change, negative = inhibition": "inactive: 7.85%"}
{"smiles": "Cc1nn(-c2ccccc2)c2c1cc1c(=O)n(C)c(=O)nc-1n2-c1cccc(Cl)c1", "Potency": "inconclusive: 14.1 µM [inhibitor, partial curve, poor fit]"}
{"smiles": "O=C(COC(=O)C(Cc1c[nH]c2ccccc12)NC(=O)c1ccc(Cl)cc1)c1ccc(Cl)cc1", "note": "(centres undefined)", "Potency": "inconclusive: 7.08 µM [inhibitor, single point]"}
{"smiles": "Oc1ccc(-c2nc(-c3ccccc3)c(-c3ccc(Br)cc3)[nH]2)cc1", "Potency": "inconclusive: 28.2 µM [inhibitor, single point]"}
{"smiles": "COc1ccccc1NC(=O)C1CCN(S(=O)(=O)c2ccc3[nH]c4c(c3c2)CCCCC4)CC1", "Potency": "inconclusive: 7.08 µM [inhibitor, single point]"}
{"smiles": "O=C(NCc1cccnc1)c1nc(-c2ccccc2)cc2[nH]ccc12", "activity change, negative = inhibition": "inactive: -11.7% [at 87.6 µM]"}
{"smiles": "Cc1cc(C)c2c(CC(=O)N3C[C@@H]4CCN(C)C[C@]4(C(=O)O)C3)coc2c1", "Potency": "inconclusive: 39.8 µM [inhibitor, single point]"}
{"smiles": "COCCCN1C(=O)c2[nH]nc(-c3ccccc3O)c2C1c1ccc(OCc2ccccc2)cc1", "note": "(centres undefined)", "Potency": "inconclusive: 39.8 µM [inhibitor, single point]"}
{"smiles": "Cc1cc(-c2cc(-c3cccs3)nc3c(C)noc23)ccn1", "activity change, negative = inhibition": "inactive: -31.7% [at 87.6 µM]"}
{"smiles": "COc1ccccc1-c1cc(C(=O)NCc2ccc(F)cc2)c2cnn(C)c2n1", "activity change, negative = inhibition": "inactive: -18.6%"}
{"smiles": "CCn1ccc(C(=O)N2C[C@@H](COC)[C@H](c3nc(C)no3)C2)n1", "Potency": "inconclusive: 3.55 µM [inhibitor, partial curve, poor fit]"}
{"smiles": "O=C1N(C2CCN(S(=O)(=O)c3cnc[nH]3)CC2)C(c2ccccc2)C12CCCC2", "note": "(centres undefined)", "Potency": "inconclusive: 11.2 µM [inhibitor, partial curve, poor fit]"}
{"smiles": "O=C(Cn1ccn2nc(-c3ccccc3)c(CO)c2c1=O)Nc1cccc(Cl)c1", "activity change, negative = inhibition": "inactive: -7.61%"}
{"smiles": "COCC(=O)N(C)Cc1ccccc1C(F)(F)F", "activity change, negative = inhibition": "inactive: 7.92% [at 87.6 µM]"}
{"smiles": "O=C(c1ccccc1)N1CCc2nc(C3CC3)nc(-c3ccc(Cl)cc3)c2C1", "activity change, negative = inhibition": "inactive: -3.71%"}
{"smiles": "CCCCNC(=O)c1cccc2c1CCN2C(=O)Nc1ccccc1", "Potency": "inconclusive: 39.8 µM [inhibitor, single point]"}
{"smiles": "CC1(C)[C@H](Cc2cc(COc3ccccc3)on2)C[C@@H]1NC(=O)C1CCC1", "activity change, negative = inhibition": "inactive: -21.4% [at 87.6 µM]"}
{"smiles": "O=C(c1ccc2cc[nH]c2c1)N1CCC2(CC1)N=C(c1cccc(Br)c1)NO2", "Potency": "inconclusive: 17.8 µM [inhibitor, single point]"}
{"smiles": "Fc1ccc(Nc2nc(SCc3ccccc3F)nc3ccccc23)cc1", "Potency": "inconclusive: 39.8 µM [inhibitor, single point]"}
{"smiles": "Cn1ncc(N2CCCC(CC(=O)N3CCCCCC3)C2)cc1=O", "note": "(centres undefined)", "activity change, negative = inhibition": "inactive: -14.4%"}
{"smiles": "CN(Cc1cccnc1)c1ccc(-c2nc(COc3ccccc3)no2)cn1", "activity change, negative = inhibition": "inactive: 30.5%"}
{"smiles": "CCCN1CCN(C(=O)Cn2c(C)ccc(NC(=O)Nc3ccccc3)c2=O)CC1", "activity change, negative = inhibition": "inactive: 12.5%"}
{"smiles": "CC(C)CCN1CCCC(c2nn(-c3ccccc3)c(=O)[nH]2)C1", "note": "(centres undefined)", "Potency": "inconclusive: 3.16 µM [inhibitor, partial curve, poor fit]"}
{"smiles": "COc1ccc(-c2cc(C(=O)NCc3ccccc3Cl)c3cnn(C)c3n2)cc1", "activity change, negative = inhibition": "inactive: -11.9%"}
{"smiles": "CCc1noc(CC2CCOC3(CCN(S(=O)(=O)c4ccc(F)c(F)c4)CC3)C2)n1", "note": "(centres undefined)", "activity change, negative = inhibition": "inactive: 6.67%"}
{"smiles": "Cc1ccc(CNC(=O)c2nnn3cc(-c4ccc(F)cc4)[nH]c(=O)c23)cc1", "Potency": "inconclusive: 11.2 µM [inhibitor, partial curve, poor fit]"}
